# From PubChem BioAssay AID493168 (National Center for Advancing Translational Sciences (NCATS), 2011)
# The inconclusive results got no clear call from the source; some entries with a clear call stand among them for comparison. No potency is given beside an inconclusive call; the fits are too rough. The source made the active and inactive calls. The call rests on the fitted dose curve; in most records, active means well fitted inhibition curve with a large enough effect; inconclusive means small, poorly fitted or top-dose-only effect, or effect the other way; inactive means flat fitted curve, though single readings scatter.
# Molecular target: Ubiquitin carboxyl-terminal hydrolase 2 (Homo sapiens) (UniProt O75604)
# Assay: Confirmation Assay for Inhibitors of Ubiquitin-specific Protease USP2a Using CHOP2 as the Reporter; further: nearly all actives have a fitted effect of over 55% in size
# Details: USP2 core, Ub-CHOP2 coupled reporter fluorescence; series mostly up to 38.3 µM; activity change, negative = inhibition: at the top concentration
# From the text: NIH Molecular Libraries Probe Centers Network [MLPCN] NIH Chemical Genomics Center [NCGC] MLSCN Grant: XO1-MH079852-01 PI Name: Nicholson, Ben. Progenra Inc, Malvern, PA NCGC Assay Overview: Homeostasis of cellular proteins is maintained through a combination of synthesis and degradation. The pathway that accounts for the majority of protein degradation is the ubiquitin-proteasomal pathway. Ubiquitin (Ub) is highly conserved in all cells and the generation of a multi-Ub chain typically targets proteins for degradation by the proteasome. However, ubiquitination is highly reversible and dynamic. Deubiquitination, the reverse process, is catalyzed through the action of enzymes referred to as isopeptidases or deubiquitinating enzymes (DUBs). This group of enzymes is collectively responsible for maintaining adequate pools of free ubiquitin and regulating the ubiquitination status of cellular proteins. The class of DUBs referred to as the ubiquitin-specific proteases (USP) family functions endoproteolytically to cleave Ub chains from a wide range of protein substrates. USP2a deubiquitinates fatty acid synthase (FASN) which has recently been identified as an emerging oncology target. To identify inhibitors of USP2a a cell-free assay was employed. […] The reporter enzyme chosen is an […] called CHOP2, which is activated when the Ub is cleaved by USP2. The free and now activated reporter can subsequently act on its reporter substrate. Thus, this coupled assay gives a fluorescent read-out at excitation/emission wavelengths of 485/531. The assay was developed by Progenra, Inc. and has been licensed for sale by LifeSensors, Inc. as Ub-CHOP2-Reporter-Kit (#PR1101).
# NCGC Assay Protocol Summary: The assay buffer, prepared fresh at the day of the assay, contains 20mM Tris-HCl pH 8.0, 2mM CaCl2, 2mM beta-Mercaptoethanol, 0.05% CHAPS. 3ul of 20nM (10nM final) USP2 core, which is stored on ice, is dispensed into a medium-binding black solid Kalypsys 1,536 well plate using the Kalypsys dispenser. The assay plate is then pinned with 23nL compound with the Kalypsys pintool in columns 5-48. The controls are pinned as follows: column 1 two-fold dilutions of 2M NEM in duplicate; column 2 2M NEM (final concentration 38.2mM); column 3&4 DMSO. The assay plate is incubated at RT for 30min. Subsequently, 1.5uL of 100nM (25nM final) Ub-CHOP2 and 1.5uL of 100nM (25nM final) Reporter Substrate (both stored on ice and protected from light) were dispensed into the plate using the Kalypsys dispenser. Plates were read after 60min RT incubation on a ViewLux (Perkin Elmer) plate reader using the following wavelengths Ex 485nm /Em 531nm. Data were normalized to the to AC100 inhibition (NEM). Concentration-response curves were fitted to the normalized data and the concentration-response curves were then classified based on curve quality (r2), response magnitude and degree of measured activity. The time zero reading was used to flag fluorescence artifacts. Keywords: ubiquitination, deubiquitination, proteases, profluorescent, MLSMR, MLPCN, NIH Roadmap, qHTS, NCGC
# Potency means the concentration at half of the fitted maximal effect; tags describe the fitted curve by direction and shape.
# UniProt O75604, sequence (O75604 whole entry, looked up): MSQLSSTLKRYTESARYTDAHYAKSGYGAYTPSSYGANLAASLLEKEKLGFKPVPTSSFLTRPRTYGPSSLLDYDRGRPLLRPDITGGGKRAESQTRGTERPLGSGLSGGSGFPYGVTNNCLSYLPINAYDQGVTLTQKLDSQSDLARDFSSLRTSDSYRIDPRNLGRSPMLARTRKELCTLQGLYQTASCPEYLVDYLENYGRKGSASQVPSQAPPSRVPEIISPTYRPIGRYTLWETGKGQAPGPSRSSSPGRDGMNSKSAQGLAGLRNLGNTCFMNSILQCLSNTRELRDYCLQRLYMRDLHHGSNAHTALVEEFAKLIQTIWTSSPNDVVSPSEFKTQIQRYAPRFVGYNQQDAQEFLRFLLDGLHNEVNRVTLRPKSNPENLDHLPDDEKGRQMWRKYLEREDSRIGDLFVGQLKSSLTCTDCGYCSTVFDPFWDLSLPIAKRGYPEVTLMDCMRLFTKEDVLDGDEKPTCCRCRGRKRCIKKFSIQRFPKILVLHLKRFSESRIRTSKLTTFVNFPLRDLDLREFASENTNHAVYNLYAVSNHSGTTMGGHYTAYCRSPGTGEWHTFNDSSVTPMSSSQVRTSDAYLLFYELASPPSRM
Structure (SMILES),"activity change, negative = inhibition",Potency
O=C1NC(=O)N(Cc2ccco2)C(=O)/C1=C/c1cccn1CCOc1ccccc1Cl,inactive: -3.58%,–
O=C(O)c1cccc2c1NC(C(=O)O)C1CC(Sc3ccccc3[N+](=O)[O-])C(Cl)C21 (stereo unspecified),–,active: 7.36 µM
CC1Oc2cc3c(-c4c(O)cc(O)c5c(O)c6c(cc45)OC(C)C(C)C6=O)c(O)cc(O)c3c(O)c2C(=O)C1C (stereo unspecified),–,active: 13.1 µM
CCCC1=C(C(=O)OCC)C2(C(=O)Nc3ccc(C)cc32)C(C#N)=C(N)O1 (stereo unspecified),inactive: 3.9%,–
CCCCn1c(=O)c(C(=O)Nc2ccccc2S(N)(=O)=O)c(O)c2ccccc21,–,"inconclusive [inhibitor, single point]"
O=C(COc1ccc(S(=O)(=O)N2CCOCC2)cc1)N1CCN(Cc2ccc3c(c2)OCO3)CC1,inactive: 0.801%,–
O=C1NC(=O)[C@]2(Cc3ccccc3N3CCN(c4ccccc4)CC32)C(=O)N1Cc1ccccc1 (stereo partly specified),–,"inconclusive [inhibitor, single point]"
CC(C)N1C(=O)/C(=C/C=C/c2ccco2)C(=O)N(Cc2ccco2)C1=O,–,"inconclusive [inhibitor, single point]"
COc1ccc(NC(=O)c2c(C)nn(Cc3ccccc3Cl)c2Cl)cc1Cl,inactive: 1.39%,–
Clc1ccc(C(c2ccc(Cl)cc2)n2cc[n+](CC(OCc3ccc(Cl)cc3Cl)c3ccc(Cl)cc3Cl)c2)cc1 (stereo unspecified),–,"inconclusive [inhibitor, single point]"
COc1ccc(S(=O)(=O)Cc2ccc(C(=O)N3CCC4(CC3)OCCO4)o2)cc1,inactive: -0.023%,–
